The target in assay [1] is human LAG3-Fc (R&D Systems #2319-L3) (human) (UniProt P18627). Briefly: SPR (Biacore), antibody captured by anti-Flag, LAG3-Fc as analyte, 25 C.
Assay [2] addresses recombinant human LAG3 protein (rhLAG3), HIS-tagged (ACRO) or biotinylated (R&D Cat #2319-C3) (human) (UniProt P18627). Briefly: flow cytometry competition, rhLAG3 binding to Daudi cells; competitor MHCII.
Assay [3] addresses cynomolgus LAG3 expressed on the cell surface (293T or CHO cells) (cynomolgus monkey). The assay can be described thus: flow cytometry, 293T cells expressing cyno LAG3.

The Kd is the constant that tells how readily two partners part at equilibrium. By koff is commonly meant the first-order rate constant of dissociation. As a reminder, the kon is a measure of how fast the partners come together. Read a high kon as fast association. For orientation: IC50 means the point on the concentration scale where inhibition reaches its midpoint.

B1: SRP1449-D05 (scFv, from a related filing, part only)
scFv-Fc: QVQLVESGGGVVQPGRSLRLSCAASGFTFRSFGMHWVRQAPGKGLEWVAVIWYDGSVKYYADSVKGRFTISRDNSKNTLYLQMNSLRAEDTAVYYCAREWADVSWDAGLDVWGQGTTVTVSSGGGGSGGGGSGGGGS[no letters for about 100 residues]KFGPGTKVDIKAAGSDQ[no letters for human IgG1 Fc with changes]
For B1, in assay [1], the Kd turned out to be 1.36 nM, the koff came to 0.000627 s⁻¹ and the kon was 460000 M⁻¹ s⁻¹. Moreover, the IC50 in assay [2] was 2.3 nM.

B2: SRP1558-A06 (scFv)
chain: EVQLLESGGGLVQPGGSLRLSCAASGFTFSESTMSWVRQAPGKGLEWVGFITSDSGTTDYADSVKGRFTISRDNSKNTLYLQMNSLRAEDTAVYYCAKVFEGGVRPFSDYWGQGTLVTVSSGGGGSGGGGSGGGGSEIVLTQSPGTLSLSPGERATLSCRASQSVSSNPLAWYQQKPGQAPRLLIYGASSRATGIPDRFSGSGSGTDFTLTISRLEPEDFAVYYCQQYMAGPPTFGQGTKVEIKAAGSDQ[no letters for human IgG1 Fc with changes]GSGDYKDDDDKGSG
Molecule B2 displayed a Kd in assay [3] of 0.3 nM.

B3: SRP1558-F01 (scFv)
chain: EVQLLESGGGLVQPGGSLRLSCAASGFTFPDSSMSWVRQAPGKGLEWVGVITDNSGNTDYADSVKGRFTISRDNSKNTLYLQMNSLRAEDTAVYYCAKVFEGGVRPYSDYWGQGTLVTVSSGGGGSGGGGSGGGGSEIVLTQSPGTLSLSPGERATLSCRASQSVSSGNPAWYQQKPGQAPRLLIYGASSRATGIPDRFSGSGSGTDFTLTISRLEPEDFAVYYCQQYTAGPPTFGQGTKVEIKAAGSDQ[no letters for human IgG1 Fc with changes]GSGDYKDDDDKGSG
B3 registered a Kd in assay [3] of 0.7 nM.

B4: SRP1448-D09 (scFv)
chain: EVQLLESGGGLVQPGGSLRLSCAASGFTFTDSSMSWVRQAPGKGLEWVGVITGNSGTTDYADSVKGRFTISRDNSKNTLYLQMNSLRAEDTAVYYCAKVYEGGVRPYSDYWGQGTLVTVSSGGGGSGGGGSGGGGSEIVLTQSPGTLSLSPGERATLSCRASQSVSSSYLAWYQQKPGQAPRLLIYGASSRATGIPDRFSGSGSGTDFTLTISRLEPEDFAVYYCQQDTAGPPTFGQGTKVEIKAAGSDQ[no letters for human IgG1 Fc with changes]GSGDYKDDDDKGSG
The molecule B4 yielded a Kd in assay [3] of 1.6 nM.

For the origin of these results see patent US20200079850A1.
